# Experimental data as given in paper PMC4336329 (PLoS ONE, 2015).
# In all, about 310,000 compounds went through this assay and about 2,200 (0.71%) showed an effect of 50% or more. The effect is printed as a negative number. The list shows a part of the results.
# Target: human ether-à-go-go-related gene (hERG) potassium channel (human, UniProt Q12809)
# Test: primary screen, population patch clamp on CHO cells stably expressing hERG
# human ether-à-go-go-related gene (hERG) potassium channel, sequence (Q12809 whole entry, looked up): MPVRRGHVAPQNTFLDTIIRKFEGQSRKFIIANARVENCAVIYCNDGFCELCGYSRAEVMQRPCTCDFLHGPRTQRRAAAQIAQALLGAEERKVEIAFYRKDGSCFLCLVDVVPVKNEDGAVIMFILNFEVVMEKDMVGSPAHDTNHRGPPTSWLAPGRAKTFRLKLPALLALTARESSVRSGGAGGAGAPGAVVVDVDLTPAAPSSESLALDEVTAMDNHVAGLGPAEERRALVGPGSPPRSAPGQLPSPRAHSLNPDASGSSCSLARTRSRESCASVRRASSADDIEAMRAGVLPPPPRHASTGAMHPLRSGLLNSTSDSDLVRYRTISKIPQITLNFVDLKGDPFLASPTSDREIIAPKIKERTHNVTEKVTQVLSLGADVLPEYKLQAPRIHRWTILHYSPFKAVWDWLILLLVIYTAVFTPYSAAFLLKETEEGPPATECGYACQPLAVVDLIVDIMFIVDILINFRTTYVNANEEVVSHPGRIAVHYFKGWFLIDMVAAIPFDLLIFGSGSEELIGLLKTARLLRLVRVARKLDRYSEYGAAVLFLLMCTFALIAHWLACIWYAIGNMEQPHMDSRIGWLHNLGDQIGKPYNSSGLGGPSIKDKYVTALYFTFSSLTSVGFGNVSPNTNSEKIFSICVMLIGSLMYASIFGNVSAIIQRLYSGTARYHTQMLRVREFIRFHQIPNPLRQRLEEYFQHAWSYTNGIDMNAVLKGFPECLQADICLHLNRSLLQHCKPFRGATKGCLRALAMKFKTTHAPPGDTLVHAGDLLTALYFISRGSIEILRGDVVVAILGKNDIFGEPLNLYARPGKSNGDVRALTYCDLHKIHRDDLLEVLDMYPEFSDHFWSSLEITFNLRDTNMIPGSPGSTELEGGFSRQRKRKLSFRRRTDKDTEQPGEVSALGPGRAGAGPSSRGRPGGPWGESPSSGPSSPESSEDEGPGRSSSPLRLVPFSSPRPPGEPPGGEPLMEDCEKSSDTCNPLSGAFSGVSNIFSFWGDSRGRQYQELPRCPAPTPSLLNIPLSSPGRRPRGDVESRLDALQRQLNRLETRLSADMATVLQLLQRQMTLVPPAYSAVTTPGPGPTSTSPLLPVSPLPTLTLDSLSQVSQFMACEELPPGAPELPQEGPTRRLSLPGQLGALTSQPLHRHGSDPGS
row,SMILES,"hERG current change (%, negative = inhibition) at 1uM"
1,Cc1cc(C(=O)NNC(=O)c2ccccc2[N+](=O)[O-])c(C)o1,7.43%
2,CCOc1cc(C)c(Cl)cc1S(=O)(=O)NCCOC,7.32%
3,C=CCNc1nc(N)c([N+](=O)[O-])c(NCc2ccccc2)n1,9.55%
4,O=C(Nc1ccc(Sc2ccc(Br)cc2)cc1)c1ccco1,10.9%
5,CC(NC(=O)CCN1C(=O)c2ccccc2C1=O)c1ccccc1 (stereo not drawn),12%
6,Cc1cccc(C(=O)N/N=C2\CS(=O)(=O)N(C)c3ccsc32)c1,2.78%
7,Cc1cccc(N(CC(=O)NC2CCCCC2)C(=O)CCC(=O)Nc2nccs2)c1,15.4%
8,COc1ccc(OCC(O)CNC2CCCC2)cc1.Cl (stereo not drawn),11.4%
9,C=C(C)c1cccc(C(C)(C)NC(=O)Nc2ccc(OC)nc2)c1,-0.414%
10,COC(=O)c1ccc(OC)c(Cn2c(=O)n(C)c(=O)c3sccc32)c1,12.5%
11,COc1ccc(N(CC(=O)Nc2ccc(C(C)C)cc2)S(=O)(=O)c2c(C)noc2C)cc1,9.97%
12,CCc1ccccc1NC(=O)c1cc(=O)c2ccccc2o1,8.38%
13,O=C(CN1CCC(O)(c2ccc3c(c2)OCO3)CC1)OC1CCCCC1,8.95%
14,CC1CCN(c2cc(N3CCN(C(=O)c4ccc(F)c(F)c4)CC3)c([N+](=O)[O-])cc2F)CC1,9.61%
15,O=C1NC(=O)c2cc(Br)cc3cccc1c23,15.1%
16,COc1ccc(-c2cc3c(=O)n(CC(=O)NCCCc4ccccc4)ncn3n2)cc1,13.2%
17,CCN(C1CCCCC1)S(=O)(=O)c1c(C)n(C)c(=O)n(C)c1=O,-1.2%
18,COc1ccc(CN2CCN(CCCc3ccccc3)CC2)c(OC)c1,-64.9%
19,Cc1ccc(S(=O)(=O)Oc2ccc(C3C4=C(CCCC4=O)N(CCC(=O)O)C4=C3C(=O)CCC4)cc2Cl)cc1,6.26%
20,CC1(C)C2CC=C(/C=N/NC(=O)c3ccc(Cl)cc3)C1C2 (stereo not drawn),7.54%
21,Cc1cc(N/N=C/c2cccc(F)c2)nc(NCc2ccccc2)n1,1.45%
22,Cl.c1ccc(CCn2nnnc2CN2CCCc3ccccc32)cc1,15.3%
23,O=C(Nc1ccccc1)Nc1nnc(-c2ccccc2)o1,7.22%
24,COC(=O)C1=C(c2ccc(-c3ccccc3)c(F)c2)C[C@@H]2CC[C@H]1N2C(=O)NC(C)C,12.8%
25,O=C(COC(=O)/C=C/c1ccc(Br)o1)Nc1ccc2[nH]c(=O)[nH]c2c1,3.55%
26,CC1=CC(C)(C)NC(=S)N1c1ccc(C)c(C)c1,4.93%
27,COc1ccc(CCNc2c(N)n(Cc3ccccc3)c(=O)[nH]c2=O)cc1OC,10.5%

row,SMILES,"hERG current change (%, negative = inhibition) at 1uM"
1,CC(=O)N1CCc2cc(S(=O)(=O)CCC(=O)N3CCN(c4cc(C)ccc4C)CC3)ccc21,9.91%
2,Cc1cccn2c(=O)c3cc(C(=O)NC4CCCC4)c(=N)n(C4CCCCC4)c3nc12,-81.9%
3,COc1ccc(Cl)cc1S(=O)(=O)NC(C)C(=O)NCc1cccnc1 (stereo not drawn),1.3%
4,CC(Oc1ccc2c3c(c(=O)oc2c1)CCCC3)C(=O)NC1CC(C)(C)NC(C)(C)C1 (stereo not drawn),10.3%
5,CC1CC(C)CN(CCC(=O)Nc2ccc3c(c2)CCC3)C1.Cl (stereo not drawn),-6.28%
6,OCCC1CN(Cc2nc3c(s2)CCCC3)CCN1Cc1ccccc1 (stereo not drawn),6.52%
7,COc1ccc(-c2nc(CS(=O)CC(=O)NCCCN3CC(C)CC(C)C3)c(C)o2)cc1OC (stereo not drawn),26.5%
8,Cn1nccc1C(=O)N1CCCC(Nc2ccc(F)cc2)C1 (stereo not drawn),13.5%
9,CC(C)(C)OC(=O)N[C@@H](Cc1ccccc1)C(=O)N[C@@H](CO)[C@H](O)[C@@H]1C[C@@H]1C(=O)NC1CC1,8.81%
10,CCOC(=O)c1sc(NC(=O)Cc2ccc(F)cc2)nc1C,-0.261%
11,CSc1nc2ccccc2c(=O)n1-c1cccnc1,11%
12,O=S(=O)(c1ccc(F)cc1)N1CCCC(c2nc(-c3ccc(F)cc3)no2)C1 (stereo not drawn),7.04%
13,O=C(NCc1ccccc1)NC1(C(=O)N2CCN(c3ncccn3)CC2)CCCCC1,11.4%
14,O=C(NCCCCNC(=O)c1cccs1)c1cccs1,15.2%
15,CC(=O)c1cccc(NC(=O)Cn2nc(-c3ccc(Cl)cc3)ccc2=O)c1,-14.3%
16,COc1cccc(-c2cc(C(=O)Nc3cnn(Cc4ccc(F)cc4)c3)no2)c1,13.4%
17,Cc1ccc(C(=O)N2CCC(C(=O)c3c(C)cc(C)cc3C)CC2)cc1,9.88%
18,COCc1nnc(NC(=O)c2ccccc2Oc2ccccc2)s1,7.54%
19,Cl.c1ccc(CN2CCN(CCN3CCn4c3nc3ccccc34)CC2)cc1,-62.3%
20,CCCc1ccc(Oc2c(-c3ccc(O)c(C)c3O)n[nH]c2C)cc1,-9.65%
21,Cc1ccc(N2CC(NC(=O)C(=O)c3c[nH]c4ccccc34)CC2=O)cc1C (stereo not drawn),4.06%
22,Cc1cc(F)ccc1S(=O)(=O)N1CCCOC1CNC(=O)C(=O)NCCN1CCOCC1 (stereo not drawn),14.7%
23,CN(C)S(=O)(=O)N1CCN(c2ccccc2Cl)CC1,-0.48%
24,O=c1c(-c2ccco2)[n+]([O-])c2ccccc2n1OCc1ccccc1[N+](=O)[O-],-4.87%
25,Cc1nc2c(=O)[nH]c3ccccc3c2o1,4.63%
26,CCOC(=O)C1=C(C)OC(N)=C(C#N)C1c1cc2c(cc1[N+](=O)[O-])OCO2 (stereo not drawn),2.27%
27,CC(=O)Oc1ccc(C(=O)[C@H]2[C@H]3C(=O)N(c4ccc5ccccc5c4)C(=O)[C@H]3[C@@H]3C=CC=NN32)cc1,3.38%
